# Laboratory results: the supplement of paper PMC11348887
# Counter-ions that a name gives are not always drawn. This is one part of the list. Cut-off read from the data, not from the text of the source: active = -2 or less and inactive = the rest. Single values are uncertain, as repeats are few or missing.
# System: hPSC-derived cortical neurons (WA09)
# Assay: nuclei number (viability) z-score; higher = more surviving cells
# Details: 5 µM; treatment: days 7-14 after plating, readout day 21
# 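Note: nuclei counted from DAPI counterstain by automated high-content image analysis, four fields per well at ×20 in 384-well plates, with sequential b-score then z-score normalization.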
row,SMILES,nuclei number (z-score)
1,COc1cc(OC)c2c(=O)[nH]c(-c3cc(C)c(OCCO)c(C)c3)nc2c1,inactive: 1.06
2,CO/N=C(\C(=O)N[C@@H]1C(=O)N2C(C(=O)O)=C(CSc3nc(=O)c(O)nn3C)CS[C@H]12)c1csc(N)n1 [Ceftriaxone Sodium Trihydrate],inactive: -0.237
3,NC(=O)CC[C@@H](N)C(=O)O [D-glutamine],inactive: 0.707
4,Cc1ccc(C(=O)Nc2ccc(CN3CCN(C)CC3)c(C(F)(F)F)c2)cc1C#Cc1cnc2cccnn12,active: -3.85
5,O=C(Nc1cccc2c(=O)cc(-c3nnn[nH]3)oc12)c1ccc(OCCCCc2ccccc2)cc1 [Pranlukast],inactive: 0.739
6,CC(C)(C)NC[C@H](O)COc1nsnc1N1CCOCC1 [Timolol Maleate],inactive: 1.09
7,NCCCC[C@H](N[C@@H](CCc1ccccc1)C(=O)O)C(=O)N1CCC[C@H]1C(=O)O [Lisinopril],inactive: 1.24
8,Cc1cncc(CN2CCC(=C3c4ccc(Cl)cc4CCc4cccnc43)CC2)c1 [Rupatadine Fumarate],inactive: 0.729
9,CS(=O)(=O)c1ccc([C@@H](O)[C@@H](CO)NC(=O)C(Cl)Cl)cc1 [Thiamphenicol],inactive: -0.132
10,CNC(=O)c1ccccc1Oc1nc(Nc2cc(OC)c(OC)c(OC)c2)ncc1Br,inactive: -0.206
11,C[C@]12C=CC(=O)C=C1CC[C@@H]1[C@@H]2[C@@H](O)C[C@@]2(C)[C@H]1CC[C@]2(O)C(=O)CO [Prednisolone],inactive: 1.11
12,O=c1ncn2nc(Sc3ccc(F)cc3F)ccc2c1-c1c(Cl)cccc1Cl,inactive: 0.426
13,O=c1[nH]cc(F)c(=O)[nH]1 [Fluorouracil (5-Fluoracil_ 5-FU)],inactive: 1.63
14,N=c1ccn2c(n1)O[C@H]1[C@H](O)[C@@H](CO)O[C@H]12 [Cyclocytidine HCl],inactive: -1.64
15,CNC(=O)c1ccc2cc([C@@]3(O)CCn4cncc43)ccc2c1 [TAK-700 (Orteronel)],inactive: -1.67
16,CC(=O)Oc1cc(C(F)(F)F)ccc1C(=O)O [Triflusal],inactive: -0.113
17,Cc1cccc(Nc2nc(NC3CCCCC3N)ncc2C(N)=O)c1 (configuration not stated),inactive: 0.0987
18,C[C@@H]1CC(=O)NN=C1c1ccc(NN=C(C#N)C#N)cc1 [Levosimendan],inactive: -0.742
19,CN(C)CCCNC(=O)c1ccc(-c2cc(O)c3ncccc3c2)cc1,inactive: 0.676
20,C[C@@H](c1ncncc1F)[C@](O)(Cn1cncn1)c1ccc(F)cc1F [Voriconazole],inactive: 0.0924
21,Cc1c(NC(=O)c2ccc(C(C)(C)C)cc2)cccc1-c1cn(C)c(=O)c(Nc2ccc(C(=O)N3CCOCC3)cc2)n1,inactive: 1.89
22,O=C(O)Cc1ccccc1Nc1c(Cl)cccc1Cl [Diclofenac Sodium],inactive: -0.141
23,O=C(O)Cc1ccccc1Nc1c(Cl)cccc1Cl [Diclofenac Diethylamine],inactive: 0.632
24,O=C(O)Cc1ccccc1Nc1c(Cl)cccc1Cl [Diclofenac Potassium],inactive: 1.4

row,SMILES,nuclei number (z-score)
1,CC[C@@]1(O)C(=O)OCc2c1cc1n(c2=O)Cc2cc3cc(O)ccc3nc2-1 [(S)-10-Hydroxycamptothecin],inactive: -0.888
2,CC[C@H](C)n1cc(C)c2c(C(=O)NCc3c(C)cc(C)[nH]c3=O)cc(-c3ccc(N4CCNCC4)nc3)cc21,inactive: -0.00847
3,Nc1cccc(S(=O)(=O)N2CCCN(S(=O)(=O)c3ccc4c(c3)OCCO4)CC2)c1,active: -2.66
4,Cc1cccc(-c2[nH]c(C(C)(C)C)nc2-c2ccc3nccnc3c2)n1,inactive: 5.12
5,CN1CCN(CCCNc2ncc(Cl)c(-c3cc4c(C(=O)NC5CC5)cccc4s3)n2)CC1,inactive: -0.0302
6,NC(=O)c1noc([C@H](CCCC2CCCCC2)CC(=O)NO)n1,inactive: -0.134
7,NC1(c2ccc(-c3nc4ccn5c(=O)[nH]nc5c4cc3-c3ccccc3)cc2)CCC1,inactive: -0.965
8,Cc1cnc(Nc2ccc(N3CCN(C)CC3)cc2)nc1Nc1cccc(S(=O)(=O)NC(C)(C)C)c1,inactive: -1.02
9,OC[C@@H](O)[C@@H](O)CO [Erythritol],inactive: 0.193
10,O=C1NC(=O)/C(=C/c2ccc(-c3ccc(F)cc3O)o2)S1,inactive: 2.12
11,CC(C)CCN1c2nc(Nc3cc(F)c(O)c(F)c3)ncc2N(C)C(=O)C1C (configuration not stated),inactive: 0.514
12,CCn1c(=O)c(-c2ccc(-c3cncs3)cc2Cl)cc2cnc(Nc3ccc(N4CCN(C)CC4)cc3)nc21,inactive: -1.86
13,NS(=O)(=O)c1cc2c(cc1Cl)N=C(CSCc1ccccc1)NS2(=O)=O [Benzthiazide],inactive: -0.508
14,Nc1ccc(S(=O)(=O)Nc2ncccn2)cc1 [Sodium sulfadiazine],inactive: 2.03
15,Nc1ccc(S(=O)(=O)Nc2ncccn2)cc1 [Sulfadiazine],inactive: 1.1
16,CCCC(C)NC(=O)c1ccc(Cl)c(Cl)c1 (configuration not stated),inactive: 0.343
17,CNC1CCC(N(Cc2cccc(-c3ccncc3)c2)C(=O)c2sc3ccccc3c2Cl)CC1 (configuration not stated) [Smoothened Agonist (SAG) HCl],inactive: -0.668
18,CC(C)[C@H](C(=O)Nc1ccc(C(=O)NO)cc1)c1ccccc1,active: -7.66
19,C#C[C@]1(OC(C)=O)CC[C@H]2[C@@H]3CCC4=C[C@@H](OC(C)=O)CC[C@@H]4[C@H]3CC[C@@]21C [Ethynodiol diacetate],inactive: 0.0157
20,CCOc1cn(-c2ccc(F)cc2C)nc1C(=O)Nc1ccc(Oc2ccnc3cc(OC)c(OC)cc23)c(F)c1,inactive: -0.239
21,C#C[C@]1(O)CC[C@H]2[C@@H]3CCC4=CC(=O)CC[C@@H]4[C@H]3CC[C@@]21C [Norethindrone],inactive: -0.529
22,O=C(NC[C@H](O)CN1CCc2ccccc2C1)c1ccnc(NC2CCC2)c1,inactive: 0.438
23,C=CCc1cc(OC)c(O)c(C(=O)NCCO)c1 [Alibendol],inactive: 0.592
